Measured values: the supplement of paper PMC10369915
The other results are listed elsewhere or left out. Rule as the data show it: active = 3.2 or more and inactive = the rest. The signal is at background level for most entries.

Experiments:
Experiment in all cases: enrichment score (SH2-bound / input frequency) (ratio); bacterial display of known human phosphotyrosine sites (pTyr-Var adds point mutants) read by sequencing; higher = stronger binding; tyrosines were phosphorylated by kinases first
Conditions in all cases: peptide library: pTyr-Var
SHP2 C-SH2 domain E139D = target: SHP2 C-SH2 domain E139D
[1] = target: SHP2 C-SH2 domain wild-type
SHP2 N-SH2 domain L43F = target: SHP2 N-SH2 domain L43F
SHP2 N-SH2 domain T42A = target: SHP2 N-SH2 domain T42A
SHP2 N-SH2 domain T52S = target: SHP2 N-SH2 domain T52S
[2] = target: SHP2 N-SH2 domain wild-type

Measured: enrichment score
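Also: displayed peptides selected on beads carrying the immobilized SH2 domain, with library peptides lacking any tyrosine serving as negative controls.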

APEVIYATPGA [ABLtide_2014]
inactive: SHP2 C-SH2 domain E139D 0.833 | [1] 0.936 | SHP2 N-SH2 domain L43F 0.83 | SHP2 N-SH2 domain T42A 0.703 | SHP2 N-SH2 domain T52S 0.828 | [2] 0.966

RLTEGYTGPFK [ZNF862_Y181_I178T]
inactive: SHP2 C-SH2 domain E139D 1.18 | [1] 0.634 | SHP2 N-SH2 domain L43F 0.455 | SHP2 N-SH2 domain T42A 0.657 | SHP2 N-SH2 domain T52S 0.693 | [2] 0.729

SFSGEYGSGGG [ZG16_Y30_G32S_YF]
inactive: SHP2 C-SH2 domain E139D 0.541 | [1] 0.682 | SHP2 N-SH2 domain L43F 0.601 | SHP2 N-SH2 domain T42A 0.451 | SHP2 N-SH2 domain T52S 0.509 | [2] 0.592

APRKVYDTRDD [ZFPL1_Y215]
inactive: SHP2 C-SH2 domain E139D 0.489 | [1] 0.406 | SHP2 N-SH2 domain L43F 0.463 | SHP2 N-SH2 domain T42A 0.415 | SHP2 N-SH2 domain T52S 0.373 | [2] 0.575

AHPIIYDIIEA [PYKtide_D_2014]
inactive: SHP2 C-SH2 domain E139D 1.69 | [1] 1.38 | SHP2 N-SH2 domain L43F 1.39 | SHP2 N-SH2 domain T42A 1.69 | SHP2 N-SH2 domain T52S 1.47 | [2] 1.48

GEYYRYLAEVA [YWHAG_Y133_D129E]
inactive: SHP2 C-SH2 domain E139D 0.908 | [1] 0.806 | SHP2 N-SH2 domain L43F 0.811 | SHP2 N-SH2 domain T42A 0.996 | SHP2 N-SH2 domain T52S 0.628 | [2] 0.921

HEGKIYEYNQV [ZNF665_Y162]
inactive: SHP2 C-SH2 domain E139D 0.911 | [1] 0.736 | SHP2 N-SH2 domain L43F 0.709 | SHP2 N-SH2 domain T42A 0.817 | SHP2 N-SH2 domain T52S 0.729 | [2] 0.906

RGVVMYTSKDR [ZG16B_Y136_M133V]
inactive: SHP2 C-SH2 domain E139D 0.654 | [1] 0.639 | SHP2 N-SH2 domain L43F 0.695 | SHP2 N-SH2 domain T42A 0.56 | SHP2 N-SH2 domain T52S 0.53 | [2] 0.613

VLALWYYYLTH [ZDHHC23_Y127]
inactive: SHP2 N-SH2 domain L43F 2.93 | SHP2 N-SH2 domain T42A 2.33 | SHP2 N-SH2 domain T52S 2.55 | [2] 3.03
active: SHP2 C-SH2 domain E139D 3.2 | [1] 3.61

RLIEGYTGPFK [ZNF862_Y181]
inactive: SHP2 C-SH2 domain E139D 0.899 | [1] 1.06 | SHP2 N-SH2 domain L43F 0.823 | SHP2 N-SH2 domain T42A 0.909 | SHP2 N-SH2 domain T52S 0.915 | [2] 0.913

NLSVPYDSSLK [ABCC8_Y1353_R1352P]
inactive: SHP2 C-SH2 domain E139D 0.549 | [1] 0.553 | SHP2 N-SH2 domain L43F 0.541 | SHP2 N-SH2 domain T42A 0.551 | SHP2 N-SH2 domain T52S 0.529 | [2] 0.617

LLRLAYLADVF [ZBED5_Y476_I480V]
active: SHP2 C-SH2 domain E139D 4.46 | [1] 3.33 | SHP2 N-SH2 domain L43F 3.83 | SHP2 N-SH2 domain T52S 3.33 | [2] 4.19
inactive: SHP2 N-SH2 domain T42A 3.18

FSSLGYPPPEG [ZSWIM4_Y87_YF]
inactive: SHP2 C-SH2 domain E139D 0.743 | [1] 0.785 | SHP2 N-SH2 domain L43F 0.93 | SHP2 N-SH2 domain T42A 0.758 | SHP2 N-SH2 domain T52S 0.661 | [2] 0.836

REGKIYEYNQV [ZNF665_Y162_H157R]
inactive: SHP2 C-SH2 domain E139D 0.648 | [1] 0.362 | SHP2 N-SH2 domain L43F 0.689 | SHP2 N-SH2 domain T42A 0.507 | SHP2 N-SH2 domain T52S 0.463 | [2] 0.4

ARAFIYAIIPA [ACKtide_2014]
inactive: SHP2 C-SH2 domain E139D 1.5 | [1] 1.86 | SHP2 N-SH2 domain L43F 1.5 | SHP2 N-SH2 domain T42A 1.34 | SHP2 N-SH2 domain T52S 1.55 | [2] 1.77

VHKKGYNKLNQ [ZNF676_Y98_E96K]
inactive: SHP2 C-SH2 domain E139D 1.84 | [1] 1.49 | SHP2 N-SH2 domain L43F 1.31 | SHP2 N-SH2 domain T42A 1.4 | SHP2 N-SH2 domain T52S 1.38 | [2] 1.28

MKGDFYCFLAE [YWHAG_Y131_R132C_YF]
inactive: SHP2 C-SH2 domain E139D 1.27 | [1] 1.78 | SHP2 N-SH2 domain L43F 1.77 | SHP2 N-SH2 domain T42A 1.44 | SHP2 N-SH2 domain T52S 1.25 | [2] 2.04

QSQQAYQEAFE [YWHAZ_Y149]
inactive: SHP2 C-SH2 domain E139D 0.905 | [1] 0.765 | SHP2 N-SH2 domain L43F 0.908 | SHP2 N-SH2 domain T42A 0.686 | SHP2 N-SH2 domain T52S 0.867 | [2] 0.853

ADEEFYEIIAA [FEStide_F_2014]
inactive: SHP2 C-SH2 domain E139D 2.08 | [1] 1.67 | SHP2 N-SH2 domain L43F 1.66 | SHP2 N-SH2 domain T42A 1.56 | SHP2 N-SH2 domain T52S 1.57 | [2] 1.69

CDYKKYGKGLR [ZNF445_Y433_Y428C]
inactive: SHP2 C-SH2 domain E139D 0.928 | [1] 1.08 | SHP2 N-SH2 domain L43F 0.928 | SHP2 N-SH2 domain T42A 1.06 | SHP2 N-SH2 domain T52S 1.04 | [2] 1.13

EITSHYRHLLR [ZBTB46_Y14]
inactive: SHP2 C-SH2 domain E139D 0.897 | [1] 0.93 | SHP2 N-SH2 domain L43F 0.778 | SHP2 N-SH2 domain T42A 0.821 | SHP2 N-SH2 domain T52S 0.909 | [2] 0.872

AEEEIYGIFGA [SRCtide_2014]
inactive: SHP2 C-SH2 domain E139D 0.971 | [1] 1.66 | SHP2 N-SH2 domain L43F 1.23 | SHP2 N-SH2 domain T42A 1.08 | SHP2 N-SH2 domain T52S 1.4 | [2] 1.82

SFSGEYGGGGG [ZG16_Y30_YF]
inactive: SHP2 C-SH2 domain E139D 0.54 | [1] 0.512 | SHP2 N-SH2 domain L43F 0.497 | SHP2 N-SH2 domain T42A 0.44 | SHP2 N-SH2 domain T52S 0.43 | [2] 0.575

GDEEDYEEIPG [EGFR_opt_E_2015]
inactive: SHP2 C-SH2 domain E139D 0.9 | [1] 0.574 | SHP2 N-SH2 domain L43F 0.425 | SHP2 N-SH2 domain T42A 0.736 | SHP2 N-SH2 domain T52S 0.471 | [2] 0.54

NLSVHYDSSLK [ABCC8_Y1353_R1352H]
inactive: SHP2 C-SH2 domain E139D 0.918 | [1] 1.06 | SHP2 N-SH2 domain L43F 0.86 | SHP2 N-SH2 domain T42A 0.836 | SHP2 N-SH2 domain T52S 0.847 | [2] 1

AQAERYDDMAA [YWHAG_Y20_E15A]
inactive: SHP2 C-SH2 domain E139D 0.43 | [1] 0.404 | SHP2 N-SH2 domain L43F 0.407 | SHP2 N-SH2 domain T42A 0.385 | SHP2 N-SH2 domain T52S 0.415 | [2] 0.5

AQINLYQDVML [ZNF806_Y33]
inactive: SHP2 C-SH2 domain E139D 1.42 | [1] 1.08 | SHP2 N-SH2 domain L43F 1.09 | SHP2 N-SH2 domain T42A 0.957 | SHP2 N-SH2 domain T52S 1.13 | [2] 1.04

YSSLGYPPPEG [ZSWIM4_Y87]
inactive: SHP2 C-SH2 domain E139D 1.15 | [1] 3.19 | SHP2 N-SH2 domain L43F 0.809 | SHP2 N-SH2 domain T42A 1.36 | SHP2 N-SH2 domain T52S 0.921 | [2] 0.773

GEFFRYLAEVA [YWHAG_Y133_D129E_YF]
inactive: SHP2 C-SH2 domain E139D 0.959 | [1] 0.961 | SHP2 N-SH2 domain L43F 0.825 | SHP2 N-SH2 domain T42A 0.725 | SHP2 N-SH2 domain T52S 0.719 | [2] 0.911

GDEEDYFEIPG [EGFR_opt_F_2015]
inactive: SHP2 C-SH2 domain E139D 0.702 | [1] 0.61 | SHP2 N-SH2 domain L43F 0.827 | SHP2 N-SH2 domain T42A 0.637 | SHP2 N-SH2 domain T52S 0.517 | [2] 0.866

FETVKYINNER [ABCB7_Y345_F346I_YF]
inactive: SHP2 C-SH2 domain E139D 0.918 | [1] 0.906 | SHP2 N-SH2 domain L43F 0.869 | SHP2 N-SH2 domain T42A 1.79 | SHP2 N-SH2 domain T52S 0.857 | [2] 0.966

GGQDVYGDFGG [Probound]
inactive: SHP2 C-SH2 domain E139D 0.716 | [1] 0.636 | SHP2 N-SH2 domain L43F 0.646 | SHP2 N-SH2 domain T42A 0.716 | SHP2 N-SH2 domain T52S 0.657 | [2] 0.729

LGRTVYADCLA [ABCA4_Y2063_L2060R]
inactive: SHP2 C-SH2 domain E139D 1.11 | [1] 1.72 | SHP2 N-SH2 domain L43F 1.23 | SHP2 N-SH2 domain T42A 3.03 | SHP2 N-SH2 domain T52S 1.41 | [2] 1.3

YADPYYDYEIE [ZC3H18_Y372]
inactive: SHP2 C-SH2 domain E139D 0.88 | [1] 0.609 | SHP2 N-SH2 domain L43F 0.898 | SHP2 N-SH2 domain T42A 0.723 | SHP2 N-SH2 domain T52S 0.758 | [2] 0.859

VEKGSYSALLA [ABCC2_Y845]
inactive: SHP2 C-SH2 domain E139D 0.99 | [1] 0.682 | SHP2 N-SH2 domain L43F 0.599 | SHP2 N-SH2 domain T42A 0.491 | SHP2 N-SH2 domain T52S 0.667 | [2] 0.545

SDVWSYGVTMW [ZAP70_Y525]
inactive: SHP2 C-SH2 domain E139D 1.04 | [1] 0.939 | SHP2 N-SH2 domain L43F 0.755 | SHP2 N-SH2 domain T42A 0.702 | SHP2 N-SH2 domain T52S 0.949 | [2] 1.04

VLALWYYYLTN [ZDHHC23_Y127_H132N]
active: SHP2 C-SH2 domain E139D 3.98 | [1] 5.41 | SHP2 N-SH2 domain L43F 3.3 | [2] 3.5
inactive: SHP2 N-SH2 domain T42A 2.23 | SHP2 N-SH2 domain T52S 2.84
